Measurements taken from PubChem BioAssay AID1963971 (Molecular Pharmacology Branch, DTP, NCI, 2024).
The source holds more than one record for some entries. This list holds those alone. There may be further records. The values listed for one entry are repeated measurements (runs, samples, wells, individuals or studies).

System: 953936-095-R-J2-PDC spheroids with HUVEC/MSC, viability
Test: Anticancer human tumor 953936-095-R-J2-PDC patient-derived cervical squamous cell carcinoma cell line growth inhibition [PI3K]
Conditions: for viability, T/C: compound alone 3.16 µM, stronger effect = lower value
Text: Combinatorial screen of targeted agents with the PI3K inhibitors inavolisib, alpelisib, duvelisib, and copanlisib in multi-cell type tumor spheroids
A high-throughput screen of multi-cell type tumor spheroids was designed to identify active combinations of targeted small molecules and PI3K pathway inhibitors. Complex spheroids include a stromal component modeled by human endothelial cells (HUVEC) and fibroblasts modeled by human mesenchymal stem cells (MSCs). The concentration ranges selected for each drug and investigational agent were based upon clinically achievable concentrations if the clinical Cmax of the agent was known.
Compounds. The drugs and investigational agents: inavolisib (NSC800729), alpelisib (NSC765974), duvelisib (NSC772469), copanlisib (NSC816437), ipatasertib (NSC767898), afuresertib (NSC778305), talazoparib (NSC767125), sapanisertib (NSC764658), selumetinib (NSC741078), tovorafenib (DAY101, NSC766906), vemurafenib (NSC761431), ravoxertinib (NSC781343), sotorasib (NSC818433), MRTX1133 (NSC 836407), abemaciclib (NSC 768073), palbociclib (NSC758247), venetoclax (NSC 766270), SY5609 (NSC837396), enzalutamide (NSC755605), and darolutamide (NSC825331), were obtained from the National Cancer Institute (NCI) Developmental Therapeutics Program Chemical Repository. The FDA-approved anticancer drug set is available from the NCI Developmental Therapeutics Program. […] The stock solutions were prepared in dimethyl sulfoxide (DMSO, Sigma-Aldrich, St. Louis, MO, cat. D2650) at 800-fold the tested concentration and stored at -70 degrees C prior to their use. All drugs and investigational agents were tested over a range starting from a high concentration at or near the clinical Cmax and decreasing in half-log increments. If the clinical Cmax for an agent had not been determined, the highest concentration tested was 10 microM.
Cell Culture. All cells were maintained in an incubator at 37 degrees C and 5% CO2 with 95% humidity. The PDC lines were cultured according to standard operating procedures established by the NCI PDMR (https://pdmr.cancer.gov/sops/default.htm). All PDCs were thawed and cultured in Matrigel-coated flasks prepared with a working solution of 1X Ham's F-12 nutrient mix, without supplementation (Invitrogen, Waltham, MA, cat. 11765054), 100 U/mL penicillin-streptomycin (Invitrogen, cat. 15140122), and 2.5% Matrigel (Corning Inc., Corning, NY, cat. 354248) for the first three passages. The 354836-022-R-J1-PDC, 475296-252-R-J1-PDC, and 997726-040-R-J2-PDC lines were cultured in 6A media, which includes advanced DMEM/F-12 (Thermo Fisher Scientific, cat. 12634028), 10 mM HEPES (Thermo Fisher Scientific, cat. 15630080), 1X GlutaMAX supplement (Thermo Fisher Scientific, cat. 35050061), 0.1 mg/mL primocin (InvivoGen, San Diego, CA, cat. ant-pm-2), 10% defined fetal bovine serum, heat inactivated (HyClone Laboratories Inc., Logan, UT, cat. SH30070.03HI), 50% L-WRN conditioned media (ATCC, cat. CRL-3276), 1.25 mM N-Acetyl-L-cysteine (Sigma-Aldrich, cat. A9165), 10 mM nicotinamide (Sigma-Aldrich, cat. N0636), 1X B-27 supplement (Thermo Fisher Scientific, cat. 17504044), 1X N-2 supplement (Thermo Fisher Scientific, cat. 17502048), and 10 microM Y-27632 dihydrochloride (Tocris Bioscience, Bristol, United Kingdom, cat. 1254). The 624824-186-R-J2-PDC line was cultured in 6C/Colon 1B media, which includes all 6A media components plus 50 ng/mL human EGF recombinant protein (Thermo Fisher Scientific, cat. PHG0311). […]
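Further: spheroids exposed to compounds for seven days before read-out.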

SMILES | viability, T/C | IC50 (compound alone)
C=CC(=O)N1CCN(c2nc(=O)n(-c3c(C)ccnc3C(C)C)c3nc(-c4c(O)cccc4F)c(F)cc23)C(C)C1 (stereo not given) | 132, 121, 106, 117% | –
CC1(C)CCC(Nc2ncc(C(F)(F)F)c(-c3c[nH]c4c(P(C)(C)=O)c(C#N)ccc34)n2)CN1 (stereo not given) | – | < 31.6 nM, 3.3 µM, 3.65 µM, 3.36 µM
CC1(C)CCC(CN2CCN(c3ccc(C(=O)NS(=O)(=O)c4ccc(NCC5CCOCC5)c([N+](=O)[O-])c4)c(Oc4cnc5[nH]ccc5c4)c3)CC2)=C(c2ccc(Cl)cc2)C1 | 140, 136, 102, 105% | –
CNC(=O)c1ccc(N2C(=S)N(c3ccc(C#N)c(C(F)(F)F)c3)C(=O)C2(C)C)cc1F | 111, 88.5, 94.6, 85.4% | –
CC(Cn1ccc(-c2ccc(C#N)c(Cl)c2)n1)NC(=O)c1cc(C(C)O)[nH]n1 (stereo not given) | 97.9, 93.3, 119, 107% | –
